Reference: PubChem BioAssay AID652104 (National Center for Advancing Translational Sciences (NCATS), 2013)
The whole screen tested about 410,000 compounds, of which about 7,200 (1.8%) were called active. Inconclusive results, whose numbers are uncertain, are shown with a selection of clear calls. Calls come from the whole dose curve; as a rule, active = well fitted activation curve with a large enough effect; inconclusive = small, poorly fitted or top-dose-only effect, or another doubt; inactive = no such curve, though single readings can be large or run the other way. Potencies of inconclusive entries are doubtful fits and often do not repeat.

test: qHTS of TDP-43 Inhibitors; conditions: TDP-43 expressing yeast growth rescue, BacTiter-Glo, 24 h; growth rescue (activation): at 46.1 µM (top of the series) unless noted; note: nearly all actives have a fitted effect of over 50% in size; for growth rescue (activation): % of control where 0% means no effect
Outline: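 Luminescence from BacTiter-Glo reports growth of TDP-43-expressing yeast after 24 hr at 30 deg C with compound. Cells were raffinose-pregrown to mid-log, then seeded in galactose medium at OD600=0.02.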
Potency is the fitted concentration of half-maximal effect; tags give direction and shape of the fitted curve.

Potency, inactive:
O=C(CCNC(=O)c1ccco1)Nc1ccc(OC(F)(F)F)cc1
O=C(CNC(=S)NC(=O)c1cccs1)c1ccccc1
Cc1cccc(OCC(=O)Nc2nc3c(s2)CC(C(C)(C)C)CC3)c1C (centres undefined)
Cc1c(CC(=O)N2CCN(C(=O)C3COc4ccccc4O3)CC2)c(=O)oc2cc(O)ccc12 (centres undefined)
CC(=O)c1c(C)oc2c(Br)cc(NS(=O)(=O)c3ccc(Br)cc3)cc12
COc1ccccc1CNc1nc2ccc(Cl)cc2n2cnnc12
CCOc1ccc(N(CC)S(=O)(=O)N2CCCC(C(=O)Nc3cc(Cl)ccc3C)C2)cc1 (centres undefined)

Potency, inconclusive:
COc1ccc(-n2nc(C(=O)N3CCCC(C)C3)c3c4ccccc4n(C)c3c2=O)cc1 (centres undefined) 35.5 µM [activator, single point]
Cc1ccc(C)c(N2CCN(C(=O)CCc3nc(-c4ccccc4Cl)no3)CC2)c1 35.5 µM [activator, partial curve, poor fit]
O=C(Nc1ccc(F)c(F)c1)c1cc(S(=O)(=O)NC2CCCCCC2)ccc1F 17.8 µM [activator, single point]
COc1cccc(-c2cccc3c2NC(=O)C3(C)Cc2ccccc2F)c1 (centres undefined) 35.5 µM [activator, partial curve]
COc1cccc(NC(=O)n2ncc3c(C)cccc32)c1 17.8 µM [activator, partial curve]
Cn1cc(C2=C(c3ccc(Cl)cc3Cl)C(=O)NC2=O)c2ccccc21 35.5 µM [activator, partial curve]
O=C(c1noc2c1CCCCC2)N1CCN(c2cccc(C(F)(F)F)c2)CC1 35.5 µM [activator, single point]
CCC(NC(=O)c1cc(COc2cncc(Cl)c2)on1)c1ccc(C)cc1 (centres undefined) 22.4 µM [activator, single point]
C=CCOc1ccc(/C=C(\C#N)C(=O)Nc2ccccn2)cc1OC 7.94 µM [activator, partial curve]
CCn1cc(C(=O)NCc2cccc(C(F)(F)F)c2)c(=O)c2ccc(C)nc21 10 µM [activator, partial curve]
Cc1ccc(S(=O)(=O)c2c(C(=O)c3ccccc3)cnc3cc4c(cc23)OCCO4)cc1 0.251 µM [activator, full curve]

Growth rescue (activation), inactive:
COc1ccc(CCNS(=O)(=O)c2cccc([N+](=O)[O-])c2)cc1 -3.92% [at 1.82 µM]
